# In the supplement of paper PMC8728848:
# The list shows a part of the results.
# B1: SalT (Orysata sativa) (protein)
# chain: MTLVKIGLWGGNGGSAQDISVPPKKLLGVTIYSSDAIRSIAFNYIGVDGQEYAIGPWGGGEGTSTEIKLGSSEHIKEISGTHGPVYDLADIVTYLKIVTSANNTYEAGVPNGKEFSIPLQDSGHVVGFFGRSGTLIDAIGIYVHPILEQKLISEEDLNSAVDHHHHHH
# Key:
# Assay in all cases: glycan array binding signal (z-score within array); higher = stronger binding
# Conditions in all cases: glycan notation: IUPAC condensed, linker removed
# [1] = target: Man(a1-2)Man(a1-3)[Man(a1-2)Man(a1-6)]Man(a1-6)[Man(a1-2)Man(a1-2)Man(a1-3)]Man(b1-4)GlcNAc(b1-4)GlcNAc
# Outline: (§1)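 Glycan array data came from 3228 arrays in the Consortium for Functional Glycomics database, and only arrays with an available protein sequence were kept. Glycan names were put into IUPAC-condensed notation, and columns mapping to the same glycan were averaged. The binding signal is a within-array Z-score, averaged across arrays of one protein sequence run at different concentrations or buffers and across linkers. A negative Z-score can be read as non-binding.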
# [2] = target: Man(a1-2)Man(a1-3)[Man(a1-6)]Man(a1-6)[Man(a1-2)Man(a1-3)]Man(b1-4)GlcNAc(b1-4)GlcNAc
# Outline: as §1
# [3] = target: Man(a1-2)Man(a1-6)[Man(a1-3)]Man(a1-6)[Man(a1-2)Man(a1-2)Man(a1-3)]Man
# Outline: as §1
# [4] = target: Man(a1-2)Man(a1-6)[Man(a1-3)]Man(a1-6)[Man(a1-2)Man(a1-2)Man(a1-3)]Man(b1-4)GlcNAc(b1-4)GlcNAc
# Outline: as §1
# Man(a1-3)[Man(a1-6)]Man = target: Man(a1-3)[Man(a1-6)]Man
# Outline: as §1
# [5] = target: Man(a1-3)[Man(a1-6)]Man(a1-6)[Man(a1-2)Man(a1-3)]Man(b1-4)GlcNAc(b1-4)GlcNAc
# Outline: as §1
# [6] = target: Man(a1-3)[Man(a1-6)]Man(a1-6)[Man(a1-3)]Man
# Outline: as §1
# [7] = target: Man(a1-3)[Man(a1-6)]Man(a1-6)[Man(a1-3)]Man(b1-4)GlcNAc(b1-4)GlcNAc
# Outline: as §1
# [8] = target: Man(a1-3)[Man(a1-6)]Man(b1-4)GlcNAc(b1-4)GlcNAc
# Outline: as §1
# [9] = target: Man(a1-3)[Man(a1-6)]Man(b1-4)GlcNAc(b1-4)[Fuc(a1-6)]GlcNAc
# Outline: as §1
# Man(a1-6)Man = target: Man(a1-6)Man
# Outline: as §1
# Man(b1-4)GlcNAc = target: Man(b1-4)GlcNAc
# Outline: as §1
# Neu5Ac(a2-3)Gal = target: Neu5Ac(a2-3)Gal
# Outline: as §1
# [10] = target: Neu5Ac(a2-3)Gal(b1-3)GalNAc
# Outline: as §1
# [11] = target: Neu5Ac(a2-3)Gal(b1-3)GalNAc(b1-3)Gal(a1-4)Gal(b1-4)Glc
# Outline: as §1
# [12] = target: Neu5Ac(a2-3)Gal(b1-3)GalNAc(b1-4)[Neu5Ac(a2-3)]Gal(b1-4)Glc
# Outline: as §1
# [13] = target: Neu5Ac(a2-3)Gal(b1-3)GalNAc(b1-4)[Neu5Ac(a2-8)Neu5Ac(a2-3)]Gal(b1-4)Glc
# Outline: as §1
# [14] = target: Neu5Ac(a2-3)Gal(b1-3)GalNAc6S
# Outline: as §1
# [15] = target: Neu5Ac(a2-3)Gal(b1-3)GlcNAc
# Outline: as §1
# [16] = target: Neu5Ac(a2-3)Gal(b1-3)GlcNAc(b1-2)Man(a1-3)[GlcNAc(b1-4)][Neu5Ac(a2-3)Gal(b1-3)GlcNAc(b1-2)Man(a1-6)]Man(b1-4)GlcNAc(b1-4)GlcNAc
# Outline: as §1
# [17] = target: Neu5Ac(a2-3)Gal(b1-3)GlcNAc(b1-3)Gal(b1-3)GlcNAc
# Outline: as §1
# [18] = target: Neu5Ac(a2-3)Gal(b1-3)GlcNAc(b1-3)Gal(b1-4)GlcNAc
# Outline: as §1
# [19] = target: Neu5Ac(a2-3)Gal(b1-3)GlcNAc(b1-3)GalNAc
# Outline: as §1
# [20] = target: Neu5Ac(a2-3)Gal(b1-3)GlcNAc(b1-6)GalNAc
# Outline: as §1
# [21] = target: Neu5Ac(a2-3)Gal(b1-3)GlcNAc6S
# Outline: as §1
# [22] = target: Neu5Ac(a2-3)Gal(b1-3)[Fuc(a1-4)]GlcNAc
# Outline: as §1
# [23] = target: Neu5Ac(a2-3)Gal(b1-3)[Fuc(a1-4)]GlcNAc(b1-3)Gal(b1-3)[Fuc(a1-4)]GlcNAc
# Outline: as §1
# [24] = target: Neu5Ac(a2-3)Gal(b1-3)[Fuc(a1-4)]GlcNAc(b1-3)Gal(b1-4)[Fuc(a1-3)]GlcNAc
# Outline: as §1
# [25] = target: Neu5Ac(a2-3)Gal(b1-3)[Neu5Ac(a2-3)Gal(b1-4)]GlcNAc
# Outline: as §1
# [26] = target: Neu5Ac(a2-3)Gal(b1-3)[Neu5Ac(a2-6)]GalNAc
# Outline: as §1
# [27] = target: Neu5Ac(a2-3)Gal(b1-3)[Neu5Ac(a2-6)]GlcNAc(b1-3)[Fuc(a1-3)[Gal(b1-4)]GlcNAc(b1-6)]Gal(b1-4)Glc
# Outline: as §1
# Neu5Ac(a2-3)Gal(b1-4)Glc = target: Neu5Ac(a2-3)Gal(b1-4)Glc
# Outline: as §1
# [28] = target: Neu5Ac(a2-3)Gal(b1-4)GlcNAc
# Outline: as §1
# [29] = target: Neu5Ac(a2-3)Gal(b1-4)GlcNAc(b1-2)Man
# Outline: as §1
# [30] = target: Neu5Ac(a2-3)Gal(b1-4)GlcNAc(b1-2)Man(a1-3)[GlcNAc(b1-2)Man(b1-4)GlcNAc(b1-2)Man(a1-6)]Man(b1-4)GlcNAc(b1-4)GlcNAc
# Outline: as §1
# [31] = target: Neu5Ac(a2-3)Gal(b1-4)GlcNAc(b1-2)Man(a1-3)[Neu5Ac(a2-3)Gal(b1-4)GlcNAc(b1-2)Man(a1-6)]Man(b1-4)GlcNAc(b1-4)[Fuc(a1-6)]GlcNAc
# Outline: as §1
# [32] = target: Neu5Ac(a2-3)Gal(b1-4)GlcNAc(b1-2)Man(a1-3)[Neu5Ac(a2-6)Gal(b1-4)GlcNAc(b1-2)Man(a1-6)]Man(b1-4)GlcNAc(b1-4)GlcNAc
# Outline: as §1
# [33] = target: Neu5Ac(a2-3)Gal(b1-4)GlcNAc(b1-2)[Neu5Ac(a2-3)Gal(b1-4)GlcNAc(b1-6)]Man(a1-6)[Neu5Ac(a2-3)Gal(b1-4)GlcNAc(b1-2)Man(a1-3)]Man(b1-4)GlcNAc(b1-4)GlcNAc
# Outline: as §1
# [34] = target: Neu5Ac(a2-3)Gal(b1-4)GlcNAc(b1-3)Gal
# Outline: as §1
# [35] = target: Neu5Ac(a2-3)Gal(b1-4)GlcNAc(b1-3)Gal(b1-3)GlcNAc
# Outline: as §1
# [36] = target: Neu5Ac(a2-3)Gal(b1-4)GlcNAc(b1-3)Gal(b1-4)GlcNAc
# Outline: as §1
# [37] = target: Neu5Ac(a2-3)Gal(b1-4)GlcNAc(b1-3)Gal(b1-4)GlcNAc(b1-3)Gal(b1-4)GlcNAc
# Outline: as §1
# [38] = target: Neu5Ac(a2-3)Gal(b1-4)GlcNAc(b1-3)Gal(b1-4)[Fuc(a1-3)]GlcNAc
# Outline: as §1
# [39] = target: Neu5Ac(a2-3)Gal(b1-4)GlcNAc(b1-3)GalNAc
# Outline: as §1
# [40] = target: Neu5Ac(a2-3)Gal(b1-4)GlcNAc(b1-3)[Neu5Ac(a2-3)Gal(b1-4)GlcNAc(b1-6)]GalNAc
# Outline: as §1
# [41] = target: Neu5Ac(a2-3)Gal(b1-4)GlcNAc(b1-6)GalNAc
# Outline: as §1
# [42] = target: Neu5Ac(a2-3)Gal(b1-4)GlcNAc(b1-6)[Gal(b1-3)]GalNAc
# Outline: as §1
# [43] = target: Neu5Ac(a2-3)Gal(b1-4)GlcNAc(b1-6)[Neu5Ac(a2-3)Gal(b1-3)]GalNAc
# Outline: as §1
# [44] = target: Neu5Ac(a2-3)Gal(b1-4)GlcNAc6S
# Outline: as §1
# [45] = target: Neu5Ac(a2-3)Gal(b1-4)[Fuc(a1-3)]GlcNAc
# Outline: as §1
# [46] = target: Neu5Ac(a2-3)Gal(b1-4)[Fuc(a1-3)]GlcNAc(b1-3)Gal
# Outline: as §1
# [47] = target: Neu5Ac(a2-3)Gal(b1-4)[Fuc(a1-3)]GlcNAc(b1-3)Gal(b1-4)GlcNAc
# Outline: as §1
# [48] = target: Neu5Ac(a2-3)Gal(b1-4)[Fuc(a1-3)]GlcNAc(b1-3)Gal(b1-4)[Fuc(a1-3)]GlcNAc(b1-3)Gal(b1-4)[Fuc(a1-3)]GlcNAc
# Outline: as §1
# [49] = target: Neu5Ac(a2-3)Gal(b1-4)[Fuc(a1-3)]GlcNAc(b1-3)GalNAc
# Outline: as §1
# [50] = target: Neu5Ac(a2-3)Gal(b1-4)[Fuc(a1-3)]GlcNAc(b1-6)[Gal(b1-3)]GalNAc
# Outline: as §1
# [51] = target: Neu5Ac(a2-3)Gal(b1-4)[Fuc(a1-3)]GlcNAc6S
# Outline: as §1
# [52] = target: Neu5Ac(a2-3)Gal6S(b1-4)GlcNAc
# Outline: as §1
binder,measurement,setting,value
B1,glycan array binding signal (z-score),[1],2.07
same,glycan array binding signal (z-score),[2],0.177
same,glycan array binding signal (z-score),[3],-0.282
same,glycan array binding signal (z-score),[4],1.35
same,glycan array binding signal (z-score),Man(a1-3)[Man(a1-6)]Man,-0.235
same,glycan array binding signal (z-score),[5],5.46
same,glycan array binding signal (z-score),[6],-0.273
same,glycan array binding signal (z-score),[7],3.62
same,glycan array binding signal (z-score),[8],4.94
same,glycan array binding signal (z-score),[9],3.1
same,glycan array binding signal (z-score),Man(a1-6)Man,-0.307
same,glycan array binding signal (z-score),Man(b1-4)GlcNAc,-0.312
same,glycan array binding signal (z-score),Neu5Ac(a2-3)Gal,-0.309
same,glycan array binding signal (z-score),[10],-0.308
same,glycan array binding signal (z-score),[11],-0.311
same,glycan array binding signal (z-score),[12],-0.304
same,glycan array binding signal (z-score),[13],-0.308
same,glycan array binding signal (z-score),[14],-0.31
same,glycan array binding signal (z-score),[15],-0.303
same,glycan array binding signal (z-score),[16],-0.125
same,glycan array binding signal (z-score),[17],-0.31
same,glycan array binding signal (z-score),[18],-0.309
same,glycan array binding signal (z-score),[19],-0.308
same,glycan array binding signal (z-score),[20],-0.306
same,glycan array binding signal (z-score),[21],-0.305
same,glycan array binding signal (z-score),[22],-0.311
same,glycan array binding signal (z-score),[23],-0.305
same,glycan array binding signal (z-score),[24],-0.303
same,glycan array binding signal (z-score),[25],-0.307
same,glycan array binding signal (z-score),[26],-0.277
same,glycan array binding signal (z-score),[27],-0.308
same,glycan array binding signal (z-score),Neu5Ac(a2-3)Gal(b1-4)Glc,-0.309
same,glycan array binding signal (z-score),[28],-0.304
same,glycan array binding signal (z-score),[29],-0.262
same,glycan array binding signal (z-score),[30],2.11
same,glycan array binding signal (z-score),[31],0.271
same,glycan array binding signal (z-score),[32],2.55
same,glycan array binding signal (z-score),[33],0.818
same,glycan array binding signal (z-score),[34],-0.311
same,glycan array binding signal (z-score),[35],-0.311
same,glycan array binding signal (z-score),[36],-0.312
same,glycan array binding signal (z-score),[37],-0.308
same,glycan array binding signal (z-score),[38],-0.309
same,glycan array binding signal (z-score),[39],-0.308
same,glycan array binding signal (z-score),[40],-0.309
same,glycan array binding signal (z-score),[41],-0.308
same,glycan array binding signal (z-score),[42],-0.309
same,glycan array binding signal (z-score),[43],-0.309
same,glycan array binding signal (z-score),[44],-0.309
same,glycan array binding signal (z-score),[45],-0.307
same,glycan array binding signal (z-score),[46],-0.31
same,glycan array binding signal (z-score),[47],-0.302
same,glycan array binding signal (z-score),[48],-0.305
same,glycan array binding signal (z-score),[49],-0.29
same,glycan array binding signal (z-score),[50],-0.303
same,glycan array binding signal (z-score),[51],-0.305
same,glycan array binding signal (z-score),[52],-0.308
